# Measured values as given in the supplement of paper PMC8728848.
# Some of the results follow.
# Tests used:
# Assay in all cases: glycan array binding signal (z-score within array); higher = stronger binding
# Details in all cases: glycan notation: IUPAC condensed, linker removed
# [1] = molecular target: Gal(b1-3)GlcNAc(b1-3)Gal(b1-3)GlcNAc
# Method in brief: (§1)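 From the Consortium for Functional Glycomics database, 3228 arrays were curated, keeping only those whose protein sequence was available. Binding is given as a within-array Z-score averaged across arrays sharing a protein sequence and across linkers. Negative Z-scores can be read as non-binding.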
# [2] = molecular target: Gal(b1-3)GlcNAc(b1-3)Gal(b1-4)Glc
# Method in brief: as §1
# [3] = molecular target: Gal(b1-3)GlcNAc(b1-3)Gal(b1-4)GlcNAc
# Method in brief: as §1
# [4] = molecular target: Gal(b1-3)GlcNAc(b1-3)Gal(b1-4)GlcNAc(b1-2)Man(a1-3)[Gal(b1-3)GlcNAc(b1-3)Gal(b1-4)GlcNAc(b1-2)Man(a1-6)]Man(b1-4)GlcNAc(b1-4)GlcNAc
# Method in brief: as §1
# [5] = molecular target: Gal(b1-3)GlcNAc(b1-3)Gal(b1-4)GlcNAc(b1-2)[Gal(b1-3)GlcNAc(b1-3)Gal(b1-4)GlcNAc(b1-6)]Man(a1-6)[Gal(b1-3)GlcNAc(b1-3)Gal(b1-4)GlcNAc(b1-2)Man(a1-3)]Man(b1-4)GlcNAc(b1-4)[Fuc(a1-6)]GlcNAc
# Method in brief: as §1
# [6] = molecular target: Gal(b1-3)GlcNAc(b1-3)Gal(b1-4)GlcNAc(b1-3)Gal(b1-4)GlcNAc(b1-2)[Gal(b1-3)GlcNAc(b1-3)Gal(b1-4)GlcNAc(b1-3)Gal(b1-4)GlcNAc(b1-6)]Man(a1-6)[Gal(b1-3)GlcNAc(b1-3)Gal(b1-4)GlcNAc(b1-3)Gal(b1-4)GlcNAc(b1-2)Man(a1-3)]Man(b1-4)GlcNAc(b1-4)[Fuc(a1-6)]GlcNAc
# Method in brief: as §1
# [7] = molecular target: Gal(b1-3)GlcNAc(b1-3)Gal(b1-4)GlcNAc(b1-6)[Gal(b1-3)GlcNAc(b1-3)]Gal(b1-4)Glc
# Method in brief: as §1
# [8] = molecular target: Gal(b1-3)GlcNAc(b1-3)Gal(b1-4)[Fuc(a1-3)]GlcNAc
# Method in brief: as §1
# [9] = molecular target: Gal(b1-3)GlcNAc(b1-3)Gal(b1-4)[Fuc(a1-3)]GlcNAc(b1-6)[Gal(b1-3)GlcNAc(b1-3)]Gal(b1-4)Glc
# Method in brief: as §1
# [10] = molecular target: Gal(b1-3)GlcNAc(b1-3)GalNAc
# Method in brief: as §1
# [11] = molecular target: Gal(b1-3)GlcNAc(b1-6)Gal(b1-4)GlcNAc
# Method in brief: as §1
# [12] = molecular target: Gal(b1-3)GlcNAc(b1-6)GalNAc
# Method in brief: as §1
# [13] = molecular target: Gal(b1-3)GlcNAc(b1-6)[Gal(b1-3)]GalNAc
# Method in brief: as §1
# Gal(b1-3)GlcNAc6S = molecular target: Gal(b1-3)GlcNAc6S
# Method in brief: as §1
# [14] = molecular target: Gal(b1-3)[Fuc(a1-4)]GlcNAc
# Method in brief: as §1
# [15] = molecular target: Gal(b1-3)[Fuc(a1-4)]GlcNAc(b1-2)Man
# Method in brief: as §1
# [16] = molecular target: Gal(b1-3)[Fuc(a1-4)]GlcNAc(b1-2)Man(a1-3)[Gal(b1-3)[Fuc(a1-4)]GlcNAc(b1-2)Man(a1-6)]Man(b1-4)GlcNAc(b1-4)[Fuc(a1-6)]GlcNAc
# Method in brief: as §1
# [17] = molecular target: Gal(b1-3)[Fuc(a1-4)]GlcNAc(b1-3)Gal(b1-3)[Fuc(a1-4)]GlcNAc
# Method in brief: as §1
# [18] = molecular target: Gal(b1-3)[Fuc(a1-4)]GlcNAc(b1-3)Gal(b1-4)GlcNAc
# Method in brief: as §1
# [19] = molecular target: Gal(b1-3)[Fuc(a1-4)]GlcNAc(b1-3)Gal(b1-4)[Fuc(a1-3)]GlcNAc
# Method in brief: as §1
# [20] = molecular target: Gal(b1-3)[Fuc(a1-4)]GlcNAc(b1-6)GalNAc
# Method in brief: as §1
# [21] = molecular target: Gal(b1-3)[GlcNAc(b1-6)]GalNAc
# Method in brief: as §1
# [22] = molecular target: Gal(b1-3)[Neu5Ac(a2-6)]GalNAc
# Method in brief: as §1
# [23] = molecular target: Gal(b1-3)[Neu5Ac(a2-6)]GlcNAc(b1-4)Gal(b1-4)Glc
# Method in brief: as §1
# [24] = molecular target: Gal(b1-3)[Neu5Ac(a2-6)]GlcNAc(b1-6)Gal(b1-4)Glc
# Method in brief: as §1
# [25] = molecular target: Gal(b1-3)[Neu5Ac(b2-6)]GalNAc
# Method in brief: as §1
# Gal(b1-4)Gal = molecular target: Gal(b1-4)Gal
# Method in brief: as §1
# [26] = molecular target: Gal(b1-4)GalNAc(a1-3)[Fuc(a1-2)]Gal(b1-4)GlcNAc
# Method in brief: as §1
# [27] = molecular target: Gal(b1-4)GalNAc(b1-3)[Fuc(a1-2)]Gal(b1-4)GlcNAc
# Method in brief: as §1
# Gal(b1-4)Glc = molecular target: Gal(b1-4)Glc
# Method in brief: as §1
# Gal(b1-4)Glc6S = molecular target: Gal(b1-4)Glc6S
# Method in brief: as §1
# Gal(b1-4)GlcNAc = molecular target: Gal(b1-4)GlcNAc
# Method in brief: as §1
# [28] = molecular target: Gal(b1-4)GlcNAc(a1-6)Gal(b1-4)GlcNAc
# Method in brief: as §1
# Gal(b1-4)GlcNAc(b1-2)Man = molecular target: Gal(b1-4)GlcNAc(b1-2)Man
# Method in brief: as §1
# [29] = molecular target: Gal(b1-4)GlcNAc(b1-2)Man(a1-3)Man(b1-4)GlcNAc(b1-4)GlcNAc
# Method in brief: as §1
# [30] = molecular target: Gal(b1-4)GlcNAc(b1-2)Man(a1-3)[Gal(b1-4)GlcNAc(b1-2)Man(a1-6)]Man(b1-4)GlcNAc(b1-4)GlcNAc
# Method in brief: as §1
# [31] = molecular target: Gal(b1-4)GlcNAc(b1-2)Man(a1-3)[Gal(b1-4)GlcNAc(b1-2)Man(a1-6)]Man(b1-4)GlcNAc(b1-4)[Fuc(a1-6)]GlcNAc
# Method in brief: as §1
# [32] = molecular target: Gal(b1-4)GlcNAc(b1-2)Man(a1-3)[Gal(b1-4)GlcNAc(b1-2)Man(a1-6)][Gal(b1-4)GlcNAc(b1-4)]Man(b1-4)GlcNAc(b1-4)[Fuc(a1-6)]GlcNAc
# Method in brief: as §1
# [33] = molecular target: Gal(b1-4)GlcNAc(b1-2)Man(a1-3)[Gal(b1-4)GlcNAc(b1-2)Man(a1-6)][GlcNAc(b1-4)]Man(b1-4)GlcNAc(b1-4)[Fuc(a1-6)]GlcNAc
# Method in brief: as §1
# [34] = molecular target: Gal(b1-4)GlcNAc(b1-2)Man(a1-3)[Gal(b1-4)GlcNAc(b1-2)][GlcNAc(b1-4)]Man(b1-4)GlcNAc(b1-4)GlcNAc
# Method in brief: as §1
# [35] = molecular target: Gal(b1-4)GlcNAc(b1-2)Man(a1-3)[GlcNAc(b1-2)Man(a1-6)]Man(b1-4)GlcNAc(b1-4)GlcNAc
# Method in brief: as §1
# [36] = molecular target: Gal(b1-4)GlcNAc(b1-2)Man(a1-3)[GlcNAc(b1-4)][Gal(b1-4)GlcNAc(b1-2)Man(a1-6)]Man(b1-4)GlcNAc(b1-4)GlcNAc
# Method in brief: as §1
# [37] = molecular target: Gal(b1-4)GlcNAc(b1-2)Man(a1-3)[Man(a1-6)]Man(b1-4)GlcNAc(b1-4)GlcNAc
# Method in brief: as §1
# [38] = molecular target: Gal(b1-4)GlcNAc(b1-2)Man(a1-6)Man(b1-4)GlcNAc(b1-4)GlcNAc
# Method in brief: as §1
# [39] = molecular target: Gal(b1-4)GlcNAc(b1-2)Man(a1-6)[GlcNAc(b1-2)Man(a1-3)]Man(b1-4)GlcNAc(b1-4)GlcNAc
# Method in brief: as §1
binder,measurement,setting,value
OrysaEULS2 (Oryza sativa) (protein) MVYCRANPNYAMTARNGAVVLAPANPKDEYQHWIKDMRWSTSIKDEEGYPAFALVNKATGQAIKHSLGQSHPVRLVPYNPEVMDESVLWTESRDVGNGFRCIRMVNNIYLNFDAFHGDKYHGGVRDGTDIVLWKWCEGDNQRWKIQPYYILEQKLISEEDLNSAVDHHHHHH,glycan array binding signal (z-score),[1],-0.205
same,glycan array binding signal (z-score),[2],-0.182
same,glycan array binding signal (z-score),[3],-0.222
same,glycan array binding signal (z-score),[4],0.704
same,glycan array binding signal (z-score),[5],0.13
same,glycan array binding signal (z-score),[6],-0.025
same,glycan array binding signal (z-score),[7],-0.219
same,glycan array binding signal (z-score),[8],-0.262
same,glycan array binding signal (z-score),[9],-0.207
same,glycan array binding signal (z-score),[10],-0.179
same,glycan array binding signal (z-score),[11],-0.209
same,glycan array binding signal (z-score),[12],-0.218
same,glycan array binding signal (z-score),[13],-0.228
same,glycan array binding signal (z-score),Gal(b1-3)GlcNAc6S,-0.185
same,glycan array binding signal (z-score),[14],-0.191
same,glycan array binding signal (z-score),[15],-0.186
same,glycan array binding signal (z-score),[16],-0.105
same,glycan array binding signal (z-score),[17],-0.217
same,glycan array binding signal (z-score),[18],-0.188
same,glycan array binding signal (z-score),[19],-0.222
same,glycan array binding signal (z-score),[20],-0.086
same,glycan array binding signal (z-score),[21],-0.22
same,glycan array binding signal (z-score),[22],-0.205
same,glycan array binding signal (z-score),[23],-0.274
same,glycan array binding signal (z-score),[24],-0.179
same,glycan array binding signal (z-score),[25],-0.216
same,glycan array binding signal (z-score),Gal(b1-4)Gal,-0.177
same,glycan array binding signal (z-score),[26],-0.199
same,glycan array binding signal (z-score),[27],-0.187
same,glycan array binding signal (z-score),Gal(b1-4)Glc,-0.197
same,glycan array binding signal (z-score),Gal(b1-4)Glc6S,-0.193
same,glycan array binding signal (z-score),Gal(b1-4)GlcNAc,-0.229
same,glycan array binding signal (z-score),[28],-0.203
same,glycan array binding signal (z-score),Gal(b1-4)GlcNAc(b1-2)Man,-0.177
same,glycan array binding signal (z-score),[29],1.23
same,glycan array binding signal (z-score),[30],1.17
same,glycan array binding signal (z-score),[31],0.251
same,glycan array binding signal (z-score),[32],-0.254
same,glycan array binding signal (z-score),[33],-0.228
same,glycan array binding signal (z-score),[34],-0.182
same,glycan array binding signal (z-score),[35],1.37
same,glycan array binding signal (z-score),[36],-0.172
same,glycan array binding signal (z-score),[37],1.06
same,glycan array binding signal (z-score),[38],-0.181
same,glycan array binding signal (z-score),[39],0.971
